According to article PMC4336329 (PLoS ONE, 2015):
In all, about 310,000 compounds went through this assay and about 14,000 (4.5%) showed an effect of 50% or more. The effect is printed as a negative number. This is one part of the list.

Target: human ether-à-go-go-related gene (hERG) potassium channel (human, UniProt Q12809)
Experiment: primary screen, population patch clamp on CHO cells stably expressing hERG
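Also: peak tail current of the secondary pulse compared with the same well before compound.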

Sequence of human ether-à-go-go-related gene (hERG) potassium channel (Q12809 whole entry, looked up): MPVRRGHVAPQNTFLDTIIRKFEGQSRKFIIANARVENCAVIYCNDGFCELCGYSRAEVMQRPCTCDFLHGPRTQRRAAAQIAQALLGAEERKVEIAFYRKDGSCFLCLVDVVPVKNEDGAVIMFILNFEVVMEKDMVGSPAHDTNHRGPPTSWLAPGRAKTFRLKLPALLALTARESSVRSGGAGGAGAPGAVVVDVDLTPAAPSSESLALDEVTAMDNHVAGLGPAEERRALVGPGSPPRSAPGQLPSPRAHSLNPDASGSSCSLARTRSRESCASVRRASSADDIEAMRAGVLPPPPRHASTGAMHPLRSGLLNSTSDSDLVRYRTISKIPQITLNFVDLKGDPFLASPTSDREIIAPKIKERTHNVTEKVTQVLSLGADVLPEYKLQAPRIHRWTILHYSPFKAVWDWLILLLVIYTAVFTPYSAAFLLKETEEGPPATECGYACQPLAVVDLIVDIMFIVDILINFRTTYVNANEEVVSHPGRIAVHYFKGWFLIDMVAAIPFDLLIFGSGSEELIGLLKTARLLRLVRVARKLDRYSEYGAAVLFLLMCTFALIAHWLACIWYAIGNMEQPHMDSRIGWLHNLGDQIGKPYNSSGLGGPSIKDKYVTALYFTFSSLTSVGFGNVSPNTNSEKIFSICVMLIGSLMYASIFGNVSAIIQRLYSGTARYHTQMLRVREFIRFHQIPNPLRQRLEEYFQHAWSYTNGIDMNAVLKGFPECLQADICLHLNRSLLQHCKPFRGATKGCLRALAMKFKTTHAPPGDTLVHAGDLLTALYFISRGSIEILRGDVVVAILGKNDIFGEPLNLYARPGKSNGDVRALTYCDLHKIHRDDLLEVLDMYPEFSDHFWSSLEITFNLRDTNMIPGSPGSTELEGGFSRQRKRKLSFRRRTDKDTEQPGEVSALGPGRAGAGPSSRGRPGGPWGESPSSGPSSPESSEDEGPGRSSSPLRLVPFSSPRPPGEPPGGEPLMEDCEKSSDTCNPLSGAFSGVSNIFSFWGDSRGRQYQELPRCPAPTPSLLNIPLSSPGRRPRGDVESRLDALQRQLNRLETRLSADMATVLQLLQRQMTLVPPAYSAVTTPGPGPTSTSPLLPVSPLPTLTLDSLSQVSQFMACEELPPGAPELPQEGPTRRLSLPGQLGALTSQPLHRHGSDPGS

Row | Compound | hERG current change (%, negative = inhibition) at 10uM [%]
1 | COc1cc(CNS(=O)(=O)c2ccc3c(c2)CC(C)N3C(C)=O)cc(OC)c1OC (stereo not shown) | 18.6
2 | CCc1ccccc1NC(=O)CSc1nc2ccccc2nc1N1CCOCC1 | -15.1
3 | COc1ccc(NC(=S)NNC(=O)c2cccs2)cc1 | 18
4 | CCOc1ccccc1NC(=O)c1oc2ccccc2c1NC(=O)C1CCCO1 (stereo not shown) | -4.46
5 | O=C(CSc1nccn1-c1ncc(C(F)(F)F)cc1Cl)c1ccc(Br)cc1 | -14.2
6 | COc1ccc(NC(=O)c2cccc(-n3cnnn3)c2)cc1 | -6.53
7 | COc1ccc(-c2nnc3ccc(SCC(N)=O)nn23)cc1OC | 3.19
8 | Cc1cc(C)nc(SCc2nnc(SCC(=O)Nc3nc(-c4ccccc4)cs3)n2C)n1 | -45.4
9 | COc1ccc2oc(-c3ccc(NC(=O)c4ccc(N5CCOCC5)c([N+](=O)[O-])c4)cc3)nc2c1 | 17.3
10 | O=C(CCc1c[nH]c2ccccc12)NCc1ccncc1 | 6.68
11 | COCCNC(=O)N1[C@H]2CC[C@@H]1C(C(=O)OC)=C(c1ccc(OC)c(OC)c1)C2 | 12.4
12 | C(=C\c1ccccc1)/C=N/Nc1nc2ccccc2[nH]1 | -6.25
13 | COC(=O)[C@@H]1C[C@@]2(O)[C@H](O)[C@H](O)[C@H](O)C[C@H]2N1C/C=C/c1ccccc1 | -4.17
14 | COc1ccc2c3c(c(=O)oc2c1OCC(=O)O)CCCC3 | 20.8
15 | COc1ccc(Cl)cc1NC(=O)CCNC(=O)OCc1ccccc1 | -12.1
16 | Cc1ccc2c(c1)N(C(=O)CCC(=O)N1CCOCC1)CC(C)O2 (stereo not shown) | 14.3
17 | Cc1ccc(S(=O)(=O)NCC(=O)NCC(=O)OC(C(=O)NC(N)=O)C(C)C)cc1C (stereo not shown) | 8.86
18 | CCN(CC)C(=O)c1ccc2c3c(cccc13)C(=O)N(CCc1ccc(OC)c(OC)c1)C2=O | -25.6
19 | CCOC(=O)CSc1nc2ccc(NC(=O)CSc3nnnn3Cc3ccccc3)cc2s1 | 18.6
20 | Cc1ccc(OCc2nnc(N)s2)cc1 | 14.7
21 | O=C(CCNC(=O)c1ccccc1)N/N=C/c1ccc([N+](=O)[O-])cc1 | -24.9
22 | COc1cc(OC)cc(C(=O)NCCCn2ccnc2)c1 | 12.5
23 | COc1cc(CN2C(=O)C(NC(=O)c3ccco3)(C(F)(F)F)C3=C2CC(C)(C)CC3=O)cc(OC)c1 (stereo not shown) | -15.3
24 | COc1cc(C(=O)NCCC(c2ccccc2)c2ccccc2)cc(OC)c1OC | 0.15
25 | O=S(=O)(c1cccs1)N1CN(C2CCCC2)c2nc3ccccc3nc21 | -4.37
26 | CC(=O)/C(C(=N)N1CCN(c2cccc(Cl)c2)CC1)=C(\C)O | 5.85
27 | O=C(COC(=O)c1cc[n+]([O-])cc1)Nc1ccc(Cl)cc1C(F)(F)F | 24.9
28 | Cc1cccc(NC(=O)C2NC(=O)CC2c2ccccc2)c1C (stereo not shown) | 1.2

Row | Compound | hERG current change (%, negative = inhibition) at 10uM [%]
29 | CC(NC(=O)C1CCCN1S(=O)(=O)c1ccc2c(c1)n(C)c(=O)c(=O)n2C)c1ccccc1 (stereo not shown) | 10.1
30 | CCOC(=O)C1(Cc2ccccc2)CCN(Cc2csc(C(C)=O)c2)CC1 | -24.2
31 | O=C(NCC1CCCO1)c1ccc(COc2ccccc2)o1 (stereo not shown) | -14.4
32 | COc1ccc(C2NC(=O)NC(C)=C2C(=O)OC2CCCC(C)C2)cc1 (stereo not shown) | 3.88
33 | O=C(NCCOc1ccccc1)C1CCCN1C(=O)c1cccs1 (stereo not shown) | 7.76
34 | Cc1ccc(NC(=O)CN2CCOCC2)cc1C | 14.3
35 | CSc1nc2ccc(N3C(=O)C4CCCCC4C3=O)cc2s1 (stereo not shown) | -1.66
36 | CON/C=C(\C=Nc1ccccc1)c1ncc(C(F)(F)F)cc1Cl | 5.75
37 | COc1ccc(F)c(CN2CCN(CCc3ccccc3)C(CCO)C2)c1 (stereo not shown) | -55.9
38 | CCC(C)N(C(=O)c1csnn1)C(C(=O)NCc1ccc(F)cc1)c1ccco1 (stereo not shown) | -16.8
39 | CCC(C)NC(=O)c1ccccc1NC(=O)CN(c1cc(C)ccc1OC)S(C)(=O)=O (stereo not shown) | 0.336
40 | C/C(=N\NC(=O)COc1ccc(C)cc1C(C)C)c1ccc(-n2ccnc2)cc1 | -33.4
41 | CCOc1ccc(NC(=O)c2ccccc2CO)cc1 | 16.2
42 | CS(=O)(=O)NCc1csc(-c2ccccc2)n1 | 10.4
43 | COc1ccc(CCN=C(C)C2=C(O)C(c3ccccc3)OC2=O)cc1OC (stereo not shown) | -20
44 | NC(=O)CSc1nnc(CNc2ccc(F)cc2)n1CC1CCCO1 (stereo not shown) | -1.77
45 | CC(C)N(C#N)c1nc(N2CCOCC2)nc(N2CCOCC2)n1 | -14
46 | Clc1cccc(N2CCNCC2)n1 | 12.9
47 | COc1ccc(Nc2nc(N)nc(CSC(=S)N3CCN(c4ccccc4)CC3)n2)cc1 | 14.1
48 | COCCN(CCOC)S(=O)(=O)c1ccc(C(=O)Nc2nc(C)c(C(C)=O)s2)cc1 | 13
49 | CCOC(=O)Cc1csc(SCC(=O)Nc2cccc(Cl)c2)n1 | 8.11
50 | Cc1cc(N2CCOCC2)ccc1/C=C1\NC(=O)N(CC(=O)Nc2ccc(F)cc2)C1=O | -3.6
51 | CCCCn1c(/N=C/c2c[nH]c3ccccc23)nc2ccccc21 | -3.26
52 | CC1(C)CC(=O)C2=C(C1)Nc1ccccc1NC2c1cccc(F)c1 (stereo not shown) | 6.89
53 | O=C(c1ccc(NC2=NC3CS(=O)(=O)CC3S2)cc1)N1CCN(Cc2ccccc2)CC1 (stereo not shown) | -33.1
54 | CNC(=O)C(=O)Nc1cc2c3c(c1)CCN3C(=O)CC2 | 28.8
55 | NC(=O)C1CCN(c2cc(Cl)nc(N)n2)CC1 | 7.72
